The list shows a part of the results.
What follows are sequences tested on PfSIP2 AP2 domain 1 (GST-tagged) (assay: gcPBM binding intensity (ln(normalized median fluorescence intensity)); higher = stronger DNA binding).
Method in brief: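 Plasmodium falciparum DNA-binding domains carrying a GST tag were expressed in E. coli and applied for 1 h, at about 25 μg on average, to an Agilent 4 × 180k array. The array held primer-extended double-stranded 36-bp intergenic genomic probes together with negative controls, and binding took place in 1× PBS with 1% milk, 0.2 mg/ml BSA, 0.5% salmon testes DNA and 0.03% Triton X-100. An Alexa488 anti-GST antibody detected bound protein, and the array was scanned at 488 nm. Binding intensity is taken as the highest Masliner-normalised natural-log median intensity across replicate spots of either probe orientation.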

Sequence | gcPBM binding intensity (ln)
AAAAAACACTTAAGGTGTACCTTTTAATATAAGTAT [XGTACX_site2397] | 6.8
AACCATAACTCATATGCACACATAAATATTACATAT [CACACA_site9273] | 7.34
TGGAGGATAGTTCACAGTACCCAGTAACTCTACGGA [XGTACX_site4930] | 6.6
AAAGTATAAATAAATACACACATATATATATATATA [CACACA_site2892] | 9.39
TACATTCGGAGTAAAAAAAAATTTATACAATTACTT [XGTACX_negctrl_site29] | 6.62
TGTGTATATAAATAATGTACATATATATTTTTTTAT [XGTACX_site7341] | 7.18
GTAAAAAAAAAAAAAAGTACATTATACATATATTTA [XGTACX_site5447] | 6.85
TTTTATAATGTTGTAGTGCAAAATACGTATATTTAT [GTGCAC_site9826] | 8.05
AATAAATATATGTACACACACAAATATATACATATC [CACACA_site1903] | 7.08
AAAATATATATTAACACACACACAAAAAAAAAAAAA [CACACA_site1325] | 7.13
AGATATAAGAAAAGCACACACACACCCAAAAAAAAA [CACACA_site2826] | 7.04
GAAAATTATATGTGTTGTACACTTGCAACAACTATT [XGTACX_site3637] | 7.04
ATATAAATATTTATTAGTACACATTAGTGTAGTTTT [XGTACX_site4493] | 6.96
CTATATTATTTTTCTTGTACGTAGGAAATATAGCTA [XGTACX_site6176] | 7.12
AATATATGGTTTCATTATATTAAATTCAATTTAATG [CACACA_negctrl_site675] | 6.75
GGTGGCTAAATTACAACACACGACGGAATATTATAT [CACACA_site4114] | 6.91
ACCGTGGGAAGACACACACACACACCCACATATATA [CACACA_site333] | 7.02
AGTATATAATAATTTACACACAAAAAAATATCAGGA [CACACA_site3517] | 7.22
TGATTTATCTATATTTTATAAGTTATTTATTTTTTT [CACACA_negctrl_site1603] | 6.68
TTTTATTCATTGAGCACACAAAATAAATTATCAAAA [CACACA_site3279] | 7.03
TTTGTAACTTCTTTCACACATATATATATATATATA [CACACA_site5603] | 9.76
GTGTGCAAAAATTGTTGTACATTATATATAAAAAAA [XGTACX_site3246] | 7.79

Sequence | gcPBM binding intensity (ln)
CTATTATCGGTTCCTACACACAAATATAGATGTCTA [CACACA_site7651] | 7.28
TATATAATACAAAAGGGTACATTAACATATTATATA [XGTACX_site3196] | 6.93
TATTTGCAATATAACACACACAAAAAAAGACTCGGA [CACACA_site6891] | 7
CATATATATATATATTGTACACATTTTTTATAAAAA [XGTACX_site2526] | 7.54
AATTATACATTATATTGTACATATGAATAATTAAAA [XGTACX_site6829] | 6.99
TATATGTAATATATATGTACGTATAATATAATATTG [XGTACX_site8620] | 6.98
AGTGATAATTTAAAAAGTACAAATGAAATTTAGCTA [XGTACX_site3375] | 6.83
TATATATAAAGCAGTACACACATTTATTTTAGATAC [CACACA_site3387] | 7.08
AGAGAGAAAGCTATAACATGCAAAAATTTTTAGAAC [TGCATGCA_site420] | 7
ATACAAATAAAAAAAAAAATTATAAAATTATAAAAT [CACACA_negctrl_site914] | 6.81
GGATTGATAAGTGGTACACACATATATATTATATAT [CACACA_site2866] | 7.19
GCATTGGGAATATATAGTACATATATATATATATAA [XGTACX_site2967] | 7.39
AAATATAAAAATAGCACACATATATACCTATATATA [CACACA_site4204] | 6.94
TTTTTCTTTTTCTTTTTTTCTTTTTTTTTTTTTTTC [GTGCAC_negctrl_site727] | 6.79
CAGACGCACGTATTTGCACACATTGCCACGTAATTA [CACACA_site3349] | 7.07
AACCATTCAACTGATGCATGCATTTAACATATAAAT [TGCATGCA_site961] | 7.14
AAAAAAATTGGGAAAAGTACTTGCAGCTAGCTAAAA [XGTACX_site5178] | 6.58
TTAAAAAAAATTTCAAGTACAAAGTAATATATATAT [XGTACX_site5718] | 8.43
AAACAAATATAATATTGTACATATATATATATATAT [XGTACX_site3105] | 9.52
ATATATATATAATTTTGTACATAATAGCAATTCTAA [XGTACX_site653] | 8.45
GGATGGAGTAGTTAAGCATAATAAATAAAATTATGT [CACACA_negctrl_site578] | 6.96
GTTTTAAACAAAAATTGTACAATATAATCTTCCTAT [XGTACX_site2851] | 6.79

Sequence | gcPBM binding intensity (ln)
CAAAACCTTTTATGTACACACATATACATCCCACTT [CACACA_site5716] | 7.06
AACAACTATTAATTTACACACATGTATATATTTTAC [CACACA_site3116] | 7.09
AATAGCTAGCTGTGCACACAAACATATTTTCCAAAT [CACACA_site880] | 8.77
CCACAAGCAGCGGAAACATGCATATGTTGAAATAAT [TGCATGCA_site610] | 6.68
TCATTTCACAAACACACACACACAATATATTTCCTT [CACACA_site3905] | 7.28
AACAAAAAAAAAAAATGTACATATATATAATATATT [XGTACX_site3829] | 6.87
GTTAAGAATATGTGTACACATATACATAAATACATA [CACACA_site4254] | 7.71
TAATAATATTATTAATGTACAAATATATATACATAT [XGTACX_site7348] | 6.96
TATATATATATATATTGTACCCTTTTCAAACTTCTC [XGTACX_site2812] | 9.01
AATATCATCCTTTTTTTTTATAAAATTTAAAATATA [CACACA_negctrl_site844] | 6.79
ACCTCACAAATGAATACACACAAACATATATATTTA [CACACA_site4976] | 7.43
TATTTTATTATACCAAGTACAAAATTTAAATATGAA [XGTACX_site5478] | 7.1
TATAAGAGAATATATACACACAAAAATAAATACAGT [CACACA_site5000] | 7.49
ATTTTATGTTGAAAGTGTACGTATTAATATGTAGAA [XGTACX_site245] | 7.34
TTTATTTTCATATGAACACACATATTTATATTATAA [CACACA_site7165] | 7.04
ATACATACATATATATGTACTTATATTTTACACATT [XGTACX_site1688] | 7.28
TACAATCTAAGGAGCACACAAAAATGGATAAATATA [CACACA_site933] | 7
TAATAAAAGAAAAAAAGTACAGACATATTGAATTTT [XGTACX_site5044] | 6.97
GCTTGAATAATCAATAGTACACACATATAAATATAT [XGTACX_site5964] | 7.08
AACACAAGAACAGAACGTACACACACATATATATAT [XGTACX_site7347] | 7.23
AGGTGTGAGACCACGTTCACAAAATAAAATACATAA [CACACA_negctrl_site326] | 6.9
TTTTTTTTTTTTTTTTGTACTCATACATACTATCAT [XGTACX_site3650] | 7.18

Sequence | gcPBM binding intensity (ln)
CAGGCACTAATAAACACACACATATAAATATAAATA [CACACA_site6320] | 6.99
ACATCAAGCAGACACACACACACACCCACCCACCCA [CACACA_site8012] | 7.32
AATTTCTACTATTGTATGCACTTTCATACATACATA [GTGCAC_site9924] | 7.52
ATAATAAAAAATACAAGTACACATATTATATATATA [XGTACX_site5355] | 8.09
AATGCTATCATTAATGCACACATTTAAAATTAATAT [CACACA_site3548] | 7.18
TTTAAAACCTTACATACACACAAATATATATATATA [CACACA_site677] | 9.16
CAAACAATTAAACAAACACACATATACAAGTATTTA [CACACA_site5177] | 6.69
TTTAAGTTTTTACTTTGTACGTATTATAATAAAATC [XGTACX_site5683] | 7.33
TATATTTACTTATGAAGTACATATATATATATATAT [XGTACX_site5069] | 9.53
TGTTCTTTTTATACTACACACTGATAAAAAAACAAA [CACACA_site3001] | 7.34
TTCATACATAGAAAATGTACATATATATATATATAT [XGTACX_site1895] | 9.47
ATATATATGCATAATACACACATCATATAATTAACC [CACACA_site1643] | 7.24
TACAAAATATTTTACACACACATATAAATACAGATA [CACACA_site5447] | 7.08
AAGATATGTACTAATACACACACATATATATATATA [CACACA_site8249] | 9.19
AAAAAAAAAAACAATACATGCATAATATTAATAAAA [TGCATGCA_site913] | 6.96
AAAGAAAAAAAATAATGTACTTATGTATTTCAGAAA [XGTACX_site3570] | 6.78
ATTTTTTTTTTTAATACACACAATTTTGATGAAGCA [CACACA_site3157] | 7.01
TTTCATAAGAGAAAGACACACAAATATATATTTATT [CACACA_site827] | 6.81
TATAATATTTGGTGCACACAAATTAACAACTGTTTA [CACACA_site3742] | 11.7
ACATTACCATATAAAACACACAAACATACATACATA [CACACA_site7709] | 7.13
TATCCATGCATTTACACACACACAAAAAAAAATTCT [CACACA_site4100] | 7.57
TTTTAAATAATTCGTAATTATAATTATGGAAAAAAG [CACACA_negctrl_site152] | 6.99
